In a collection of fitness landscapes (doi:10.1016/j.celrep.2020.107928):
Whole data set: some 81,000 sequences, median “one-hybrid fitness for binding parS DNA” near -0.17, cut for the highest 2% near 0.51. The list shows a part of the results.

B1: Caulobacter ParB omega fusion; a variant is named by its letters at X, in order, B8GW30 (parent)
chain: MESVVVGEPGMSEGRRGLGRGLSALLGEVDAAPAQAPGEQLGGSREAPIEILQRNPDQPRRTFREEDLEDLSNSIREKGVLQPILVRPSPDTAGEYQIVAGERAWRAAQRAGLKTVPIMVRELDDLAVLEIGIIENVQRADLNVLEEALSYKVLMEKFERTQENIAQTIGKSXSHVANXMRLLXLPDEVQSYLVSGELTAXHARAIAAAADPVALAKQIIEGGLSVRETEALARKAPNLSAGKSKGGRPPRVKDTDTQALESDLSSVLGLDVSIDHRGSTGTLTITYATLEQLDDLCNRLTRGI

Variants of: B1
Assay: one-hybrid fitness for binding parS DNA (scaled: cognate 1, non-cognate 0); higher = stronger binding
Settings: with parS DNA site
How it was run: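 On M9-minus-histidine containing 0.1 mM IPTG and 5 mM 3-AT, E. coli USO cells with a HIS3 reporter, site 19 bp from the promoter, grew 48 hours at 37°C to select Caulobacter ParB libraries randomised at four specificity codons. Plasmids from before and after were Illumina-sequenced, with three replicate libraries pooled and variants under 10 reads left out. Fitness is the log change in variant-to-wild-type read ratio, rescaled against cognate and non-cognate.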

Variant	one-hybrid fitness for binding parS DNA
CRCR	≤ 0.2
ETWN	≤ 0.2
EIHV	≤ 0.2
SATQ	≤ 0.2
RRWH	≤ 0.2
RQWL	≤ 0.2
LQQG	≤ 0.2
PYNN	≤ 0.2
TMCR	≤ 0.2
LWKA	≤ 0.2
DMTE	≤ 0.2
HDHS	≤ 0.2
RSYP	≤ 0.2
REPR	≤ 0.2
EPTV	≤ 0.2
QTPI	≤ 0.2
DNNG	≤ 0.2
RNIV	≤ 0.2
YQHC	≤ 0.2
GFTM	≤ 0.2
YLAP	≤ 0.2
VRIC	≤ 0.2
TDIK	≤ 0.2
TYWG	≤ 0.2
HVGK	≤ 0.2
QWNR	≤ 0.2

Variant	one-hybrid fitness for binding parS DNA
GLPC	≤ 0.2
LRDF	≤ 0.2
KPMG	≤ 0.2
ERDR	≤ 0.2
WSHG	≤ 0.2
CTRE	≤ 0.2
RSDH	≤ 0.2
DAEY	≤ 0.2
HPGM	≤ 0.2
GCVR	≤ 0.2
QYPM	≤ 0.2
RKQL	≤ 0.2
YQTV	≤ 0.2
HTSV	≤ 0.2
IYGL	≤ 0.2
CATD	≤ 0.2
GDVW	≤ 0.2
GDRR	≤ 0.2
SHCS	≤ 0.2
KVHC	≤ 0.2
RLCS	1.03
HHNR	≤ 0.2
GGYR	≤ 0.2
KKRE	≤ 0.2
GFHR	≤ 0.2
QKLY	≤ 0.2

Variant	one-hybrid fitness for binding parS DNA
LDPL	≤ 0.2
QLNI	≤ 0.2
RHCM	≤ 0.2
HPYS	≤ 0.2
YWNT	≤ 0.2
ILFC	≤ 0.2
SAGY	≤ 0.2
MPDC	≤ 0.2
HIRE	≤ 0.2
TFQF	≤ 0.2
VKVG	≤ 0.2
SRWC	≤ 0.2
WKFI	0.205
KRFI	≤ 0.2
KKIR	≤ 0.2
TLFE	≤ 0.2
QEWC	≤ 0.2
KYGR	≤ 0.2
SLGA	≤ 0.2
LVNS	≤ 0.2
LHET	≤ 0.2
LGRI	≤ 0.2
SMMW	≤ 0.2
RKIE	≤ 0.2
MEPV	≤ 0.2
VYMG	≤ 0.2

Variant	one-hybrid fitness for binding parS DNA
RYVK	≤ 0.2
GSKQ	≤ 0.2
FDKG	≤ 0.2
DSAY	≤ 0.2
CSIR	≤ 0.2
GRQQ	≤ 0.2
MVLQ	≤ 0.2
TCAK	≤ 0.2
SGVR	≤ 0.2
LMRC	≤ 0.2
LQIC	≤ 0.2
YRQG	≤ 0.2
DNLG	≤ 0.2
SFSQ	≤ 0.2
PVDF	≤ 0.2
MMRT	≤ 0.2
NSNY	≤ 0.2
VMHT	≤ 0.2
PTRR	≤ 0.2
WMSW	≤ 0.2
GACS	≤ 0.2
CHGT	≤ 0.2
ERRY	≤ 0.2
GRLF	≤ 0.2
GGQG	≤ 0.2
FLQV	≤ 0.2

Variant	one-hybrid fitness for binding parS DNA
VRHF	≤ 0.2
RAYV	≤ 0.2
RRRE	≤ 0.2
NEES	≤ 0.2
NEHS	≤ 0.2
AKNE	≤ 0.2
QIII	≤ 0.2
RCKV	≤ 0.2
SWLT	≤ 0.2
KSKV	≤ 0.2
NTHI	≤ 0.2
ESVF	≤ 0.2
VPKR	≤ 0.2
EKCS	≤ 0.2
FVWR	≤ 0.2
FPAS	≤ 0.2
HSLQ	≤ 0.2
QPSG	≤ 0.2
TNSC	≤ 0.2
NAST	≤ 0.2
ESLL	≤ 0.2
HRCV	≤ 0.2
PLRY	≤ 0.2
CKWG	≤ 0.2
QYCA	≤ 0.2
YFQC	≤ 0.2

Variant	one-hybrid fitness for binding parS DNA
SPGC	≤ 0.2
QIHR	≤ 0.2
NNMA	≤ 0.2
CAVD	≤ 0.2
QLHA	≤ 0.2
CLLW	≤ 0.2
SDNM	≤ 0.2
LEPR	≤ 0.2
VAPI	≤ 0.2
LCIR	≤ 0.2
RKTN	0.336
LSSI	≤ 0.2
YAVT	≤ 0.2
TRFE	≤ 0.2
FQSM	≤ 0.2
PDNF	≤ 0.2
CTVL	≤ 0.2
PWSA	≤ 0.2
PCQT	≤ 0.2
LRCT	≤ 0.2
GTNK	≤ 0.2
YIMW	≤ 0.2
PFDC	≤ 0.2
